# Source: the supplement of paper PMC10600219
# Structures can show the parent of a compound that is named as a salt. In all, about 2,800 compounds were measured (“cell viability relative to vehicle”: median about 1.1, lowest 2% from about 0.19 on). Some of the results follow.
# Tested on: NCI-H2228 parental
# Assay: cell viability relative to vehicle (fraction of vehicle); NCI-H2228 is an ALK-positive lung cancer line and DTP means drug-tolerant persister; higher = less growth inhibition
# Conditions: 100 nM; treatment time 6 days
# Outline: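 NCI-H2228 parental cells and drug-tolerant persister cells were plated in 384-well plates; the persisters had been generated with 1000 nM of a targeted drug over 13 days. One day later, the 3114-agent TargetMol anti-cancer compound library was added at 100 nM, with DMSO serving as vehicle. ATP was measured 6 days after that using the CellTiter-Glo 3D Cell Viability Assay. Values are cell viability expressed relative to vehicle-treated cells.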
row,SMILES,cell viability
1,CCCCCCCCNC(C)C(O)c1ccc(SC(C)C)cc1 (stereo unspecified) [Suloctidil],1.08
2,COc1cc2c(cc1OC)[C@@H]1C(=O)c3ccc4c(c3O[C@@H]1CO2)C=CC(C)(C)O4 [Deguelin],0.928
3,S=c1[nH]cnc2nc[nH]c12 [Mercaptopurine],0.873
4,S=c1[nH]cnc2nc[nH]c12 [6-Mercaptopurine monohydrate],0.405
5,NS(=O)(=O)c1ccc(NC(=O)Nc2ccc(F)cc2)cc1,1.06
6,CN1CCC(CNc2ccc3ncc(-c4cccc(OC(F)(F)F)c4)n3n2)CC1 [SGI-1776 free base],0.994
7,Cc1nn(C)cc1-c1nc2c(N3CCN(Cc4ccc(Cl)cc4)CC3)c(Cl)cnc2[nH]1,0.927
8,C[C@H](NC(=O)CCc1nc2ccccc2c(=O)[nH]1)c1ccccc1,1.03
9,NCC(=O)CCC(=O)O [5-Aminolevulinic acid hydrochloride],0.98
10,COc1ccc(CNc2nc(N(CCO)CCO)nc3c2ncn3C(C)C)cc1,1.03
11,Cc1ccc(Sc2ccccc2N2CCNCC2)c(C)c1 [Vortioxetine],1.15
12,Cc1ccc(C)c(OCCCC(C)(C)C(=O)O)c1 [Gemfibrozil],1.26
13,CC1(C)CC[C@]2(C(=O)O)CC[C@]3(C)[C@H](C(=O)C=C4[C@@]5(C)C=C(C#N)C(=O)C(C)(C)[C@@H]5CC[C@]43C)[C@@H]2C1 [Bardoxolone],1.02
14,O=C(O)/C=C/C(=O)O [Fumaric acid],1.24
15,COc1cc2c(cc1OC)[C@@H]1Cc3ccc(OC)c(OC)c3CN1CC2 [Rotundine],1.11
16,O=C(CCCN1CCC(O)(c2ccc(Cl)cc2)CC1)c1ccc(F)cc1 [Haloperidol],1.19
17,CC1(C)[C@@H](O)CC[C@]2(C)[C@H]3C(=O)C=C4[C@@H]5C[C@@](C)(C(=O)O)CC[C@]5(C)CC[C@@]4(C)[C@]3(C)CC[C@@H]12 [Enoxolone],1.15
18,CC1(C)CC(=O)c2c(C(F)(F)F)nn(-c3ccc(C(N)=O)c(N[C@H]4CC[C@H](OC(=O)CN)CC4)c3)c2C1,0.236
19,C[C@H]1COC2(CCN(c3nc(=O)c4cc(C(F)(F)F)cc([N+](=O)[O-])c4s3)CC2)O1 (racemic) [BTZ043 Racemate],1.07
20,Cc1ccc(S(=O)(=O)N2CCCC2c2ccc(F)cc2)cc1 (stereo unspecified),0.97
21,O=C1CN(CCN2CC(=O)N(CN3CCOCC3)C(=O)C2)CC(=O)N1CN1CCOCC1 [Bimolane],1.11
22,O=C(NCc1cccc(O)c1)Nc1nc(-c2ccncc2)cs1,1.06
23,COc1cc(C(=O)NC2CCN(C)CC2)ccc1Nc1ncc2c(n1)N(C1CCCC1)CC(F)(F)C(=O)N2C,0.171
24,N#CCCCSC(=N)N [Kevetrin hydrochloride],1
25,COc1c(C)c2c(c(O)c1C/C=C(\C)CCC(=O)OCCN1CCOCC1)C(=O)OC2 [Mycophenolate Mofetil],1.1
26,CN1C(C(=O)Nc2ccccn2)=C(O)c2ccccc2S1(=O)=O [Piroxicam],0.952

row,SMILES,cell viability
1,CN1C(N)=N[C@](C)(c2cc(NC(=O)c3ccc(F)cn3)ccc2F)CS1(=O)=O [Verubecestat],1.12
2,NCCS [2-Aminoethanethiol],1.09
3,COc1ccc(CCc2nc3cc(-c4c(C)noc4C)ccc3n2C[C@H](C)N2CCOCC2)cc1Cl,1.08
4,Nc1nc(=O)c2c([nH]1)NC[C@H](CNc1ccc(C(=O)N[C@@H](CCC(=O)O)C(=O)O)cc1)N2C=O [Calcium Levofolinate],1.15
5,CNCc1ccc(-c2[nH]c3cc(F)cc4c3c2CCNC4=O)cc1 [Rucaparib Phosphate],1
6,CCNC(=O)c1noc(-c2cc(C(C)C)c(O)cc2O)c1-c1ccc(CN2CCOCC2)cc1 [Luminespib],0.0552
7,Cc1cnc(-c2cnc(NCCNc3ccc(C#N)cn3)nc2-c2ccc(Cl)cc2Cl)[nH]1,1.09
8,CC(=O)OC(C)C(C)C(=O)OCC12C3CC(C)(C)[C@H](O[C@@H]1C[C@]1(C)C3=CCC3C4(C)CCC(O[C@@H]5O[C@H](C(=O)O)[C@@H](O[C@H]6O[C@H](CO)[C@@H](O)[C@H](O)[C@H]6O)[C@H](O)[C@H]5O[C@@H]5OC[C@@H](O)[C@H](O)[C@H]5O)[C@](C)(CO)C4CCC31C)C2O (stereo partly specified) [Sodium Aescinate],1.1
9,COc1ccc2c(c1)C(=O)N(CCc1ccc(S(=O)(=O)NC(=O)NC3CCCCC3)cc1)C(=O)C2(C)C [Gliquidone],1.13
10,C=CCc1ccc(O)c(-c2cc(CC=C)ccc2O)c1 [Magnolol],1.02
11,CN(C)CCN(Cc1ccc(Cl)cc1)c1ccccn1 [Chloropyramine hydrochloride],1.15
12,NS(=O)(=O)Cc1noc2ccccc12 [Zonisamide],0.935
13,CC(=O)c1cc([N+](=O)[O-])c(Sc2ccc(F)cc2F)s1,0.963
14,Cc1nn2c([nH]c(=O)c3cccnc32)c1C#N,1.07
15,Cc1cn([C@H]2C[C@H](N=[N+]=[N-])[C@@H](CO)O2)c(=O)[nH]c1=O [Zidovudine],1.24
16,Cc1ccc2nc(NCCN)c3ncc(C)n3c2c1,1.06
17,NCCC(O)(P(=O)(O)O)P(=O)(O)O [Pamidronate disodium salt],1.08
18,CC(C[N+](C)(C)C)OC(N)=O (stereo unspecified) [Bethanechol chloride],1.21
19,CCCc1nc2c(C)cc(-c3nc4ccccc4n3C)cc2n1Cc1ccc(-c2ccccc2C(=O)O)cc1 [Telmisartan],1.12
20,CC(C)(C)C1CCc2c(sc(NC(=O)c3ccco3)c2C(=O)O)C1 (stereo unspecified),1.01
21,COCCCOc1cc(C[C@@H](C[C@H](N)[C@@H](O)C[C@H](C(=O)NCC(C)(C)C(N)=O)C(C)C)C(C)C)ccc1OC [Aliskiren hemifumarate],1.24
22,CC1=CC(=O)c2ccccc2C1=O [Menadione],1.17
23,CC(=O)/N=c1/sc(S(N)(=O)=O)nn1C [Methazolamide],0.955
24,Cc1ccc(C(=O)N(CCCN)[C@@H](c2nc3cc(Cl)ccc3c(=O)n2Cc2ccccc2)C(C)C)cc1 [Ispinesib],0.28
25,CC(=O)Oc1cc(C)c(OC(C)=O)c2ccccc12 [Menadiol Diacetate],1.18
